# Results: paper PMC4336329 (PLoS ONE, 2015)
# About 14,000 (4.5%) of roughly 310,000 compounds showed an effect of 50% or more. The effect is printed as a negative number. The list shows a part of the results.
# Biological target: human ether-à-go-go-related gene (hERG) potassium channel (human, UniProt Q12809)
# Assay: primary screen, population patch clamp on CHO cells stably expressing hERG
# 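Note: peak tail current of the secondary pulse compared with the same well before compound.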
# Chain of human ether-à-go-go-related gene (hERG) potassium channel (Q12809 whole entry, looked up): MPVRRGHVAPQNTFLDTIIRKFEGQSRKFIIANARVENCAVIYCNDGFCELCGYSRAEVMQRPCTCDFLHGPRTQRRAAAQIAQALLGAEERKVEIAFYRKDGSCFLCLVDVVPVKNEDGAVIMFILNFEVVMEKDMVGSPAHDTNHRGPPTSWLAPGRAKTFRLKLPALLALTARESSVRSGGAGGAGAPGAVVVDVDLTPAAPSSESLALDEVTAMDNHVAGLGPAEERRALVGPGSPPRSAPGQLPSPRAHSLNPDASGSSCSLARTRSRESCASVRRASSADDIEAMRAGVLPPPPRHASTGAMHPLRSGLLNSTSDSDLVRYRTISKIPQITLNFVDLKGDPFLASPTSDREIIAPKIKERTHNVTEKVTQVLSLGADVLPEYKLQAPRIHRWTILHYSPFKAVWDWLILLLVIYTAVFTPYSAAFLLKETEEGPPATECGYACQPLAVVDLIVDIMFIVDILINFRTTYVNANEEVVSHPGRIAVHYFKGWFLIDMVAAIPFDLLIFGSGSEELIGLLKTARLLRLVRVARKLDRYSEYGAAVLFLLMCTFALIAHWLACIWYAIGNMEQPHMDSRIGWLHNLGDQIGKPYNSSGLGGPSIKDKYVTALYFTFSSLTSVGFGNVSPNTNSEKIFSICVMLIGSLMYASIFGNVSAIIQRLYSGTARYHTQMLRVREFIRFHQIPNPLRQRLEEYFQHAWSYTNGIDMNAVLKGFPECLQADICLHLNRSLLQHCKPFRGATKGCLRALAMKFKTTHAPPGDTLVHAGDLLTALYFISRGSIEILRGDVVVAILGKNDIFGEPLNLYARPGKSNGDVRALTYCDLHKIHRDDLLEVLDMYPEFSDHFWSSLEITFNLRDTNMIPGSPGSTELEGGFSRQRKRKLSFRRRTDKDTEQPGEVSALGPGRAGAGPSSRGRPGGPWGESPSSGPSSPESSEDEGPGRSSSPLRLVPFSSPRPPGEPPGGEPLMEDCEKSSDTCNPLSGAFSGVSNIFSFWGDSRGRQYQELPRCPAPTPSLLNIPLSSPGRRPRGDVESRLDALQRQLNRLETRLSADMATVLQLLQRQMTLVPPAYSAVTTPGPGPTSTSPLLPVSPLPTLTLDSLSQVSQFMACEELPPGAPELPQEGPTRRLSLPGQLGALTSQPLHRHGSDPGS
row,SMILES,"hERG current change (%, negative = inhibition) at 10uM [%]"
1,CCN(CC)S(=O)(=O)c1cc(C(=O)O)ccc1OC,1.19
2,O=C(O)c1ccccc1NCCO,33.8
3,c1ccc(-c2ccc(-c3csnn3)cc2)cc1,14.2
4,O=C(CN1CCCN(S(=O)(=O)c2ccc(F)cc2)CC1)Nc1c(Cl)cccc1Cl,-27.1
5,N#Cc1ccccc1Sc1ccccc1C(=O)OCc1nnc(-c2ccccc2)o1,10.2
6,O=C(CSCc1ccc(Cl)cc1)N/N=C/c1ccc(OCC(=O)Nc2ccccc2)cc1,10.2
7,O=C(CCc1nnc(CCCCc2ccccc2)o1)N1CCC(N2CCCC2)CC1,-0.932
8,COc1cc2ccccc2cc1C(=O)OCC(=O)c1c(N)n(C)c(=O)n(C)c1=O,-28.4
9,COc1ccc(NC(=O)CCC(=O)c2ccc(C(C)C)cc2)cc1,27.7
10,Cc1n[nH]c(C)c1CCN(C)Cc1cn(C)nc1-c1ccccc1F,12.3
11,O=C1C=C(c2cnc3ccccc3c2)C[C@@H](c2ccc3c(c2)OCO3)C1,-1.3
12,Cc1cc(C)c2[nH]c(C(=O)Nc3ccc(F)cc3Br)cc2c1,13.4
13,CC(C)(C)[C@H]1C=C(C(N)=O)O[C@@H](OCCCCO)C1,4.84
14,CCCCn1c(N)c(N(CCOC)C(=O)CCCc2nc3ccccc3s2)c(=O)[nH]c1=O,6.21
15,O=C(Nc1ccnn1C1CCN(Cc2ccccc2F)CC1)C1CCCC1,-45.4
16,CC(=O)c1ccc(NC(=O)CN2C(=O)COc3ccc(Cl)cc32)cc1,1.8
17,O=C(CCn1cccc1)Nc1nccs1,-0.358
18,C[C@@H](C(=O)NCCc1ccccc1F)N1C(=O)N2CCc3c([nH]c4ccccc34)[C@@]2(C)C1=O,-27.2
19,Cc1ccc(NC(=O)CCC(=O)c2cc(C)sc2C)nc1,-19.3
20,Cc1ccccc1NC(=S)N(CCN1CCCCCC1)Cc1cccs1,-39.5

row,SMILES,"hERG current change (%, negative = inhibition) at 10uM [%]"
1,O=C(CCCC(=O)NNC(=O)Nc1ccccc1)NNC(=O)Nc1ccccc1,22.9
2,Cc1ccc(CN2CCC(CO)(CC3CCCCO3)CC2)o1 (stereo not shown),10.6
3,CC(=O)N1CCC(=NNC(=O)c2cc3ccccc3cc2O)CC1,16.8
4,CC1CN(C(=O)Cn2c(=O)oc3ccccc32)CC(C)O1 (stereo not shown),23
5,O=C(NC1CCCC1)c1cnn2c(C(F)(F)F)cc(-c3ccco3)nc12,-42.2
6,O=Cc1ccc(OCc2ccc3ccccc3c2)cc1,21.5
7,CCOC(=O)c1c(NC(=O)CN2C(=O)NC3(CCCCC3C)C2=O)sc(C)c1C (stereo not shown),10.4
8,O=C(COC(=O)CCc1ccccc1)NC1CCS(=O)(=O)C1 (stereo not shown),13.1
9,COCCn1nnnc1C(c1ccc(OC)cc1OC)N1CCN(c2ccccc2)CC1 (stereo not shown),-70.8
10,CCOc1ccc2nc(-c3ccccc3)[nH]c2c1,4.83
11,O=C(O)C1=C[C@@H](c2ccc3c(c2)OCO3)C[C@@H](OCCCCO)O1,20.5
12,Cc1cccc(-c2cc(C(=O)N3CCCc4ccccc43)c3ccccc3n2)c1,8.75
13,CCOC(=O)c1ccccc1NS(=O)(=O)c1ccccc1F,9.96
14,CC(C)(C)C(=O)c1sc(Nc2ccccc2)nc1N,-8.92
15,CCn1ccc(C(=O)Oc2ccc(C(C)C)cc2)n1,-4.72
16,COc1cccc(Nc2ncnc3ccccc23)c1.Cl,2.97
17,CN(C)C(=O)Oc1cccc(-c2cn3cc(Cl)ccc3n2)c1,-9.64
18,COc1cc(OC)c(NC(=O)c2cc(S(=O)(=O)N3CCOCC3)cn2C)cc1Cl,-5.85
19,O=C(COC(=O)c1ccc(S(=O)(=O)NCc2ccco2)cc1)Nc1ccc(OC(F)F)cc1,-9.32
20,Cc1ccc(-c2nnc(N(C)C(=O)c3cccnc3)s2)cn1,19

row,SMILES,"hERG current change (%, negative = inhibition) at 10uM [%]"
1,CCn1ncc(NC(=O)Nc2cccc(C(F)(F)F)c2)c1C(N)=O,1.77
2,COC(=O)c1cc(S(=O)(=O)NCc2ccc3c(c2)OCO3)cn1C,-0.484
3,CCOC(=O)N1CCN(S(=O)(=O)N2CCCC(C(=O)NCCc3ccc(Cl)cc3)C2)CC1 (stereo not shown),-36.2
4,NS(=O)(=O)c1ccc(CCNC(=O)CN2CCN(c3ccc(F)cc3)CC2)cc1,-18.7
5,Cc1cc(NC(=O)/C=C/c2ccccc2Cl)n(-c2nc3ccccc3[nH]2)n1,19.8
6,CCOC(=O)C1CCN(c2nc(-c3ccc(Br)cc3)nc3ccccc23)CC1,-1.89
7,O=c1[nH]nc(-c2ccc(F)cc2)cc1Cc1ccccc1,3.89
8,Cc1ccc(C(=O)N/N=C(\CC(C)C)c2ccccc2)cc1,-36.1
9,Cc1cc(/C=C2\C(=O)NC(=O)N(c3ccc(Cl)cc3)C2=O)c(C)n1-c1sc2c(c1C#N)CCCC2,12.4
10,CCc1ccc2nc(SCC(=O)N3CC(=O)Nc4ccccc43)c(C#N)cc2c1,2.85
11,COc1ccc(Nc2cc(C(=O)NCc3ccco3)c3ccccc3n2)cc1,-0.014
12,COc1cccc(OC)c1C(=O)NC(=O)Oc1c(F)cccc1F,19.9
13,O=C(O)Cc1ccc(NC(=O)Nc2cccc3ccccc23)cc1,11.4
14,COc1nc(N=C(N)N)nc2ccc(C)cc12,-2.73
15,COc1ccc(C(=O)/C=C/c2ccccc2)c(OC)c1,-19
16,Cc1c(N)c(C)c([N+](=O)[O-])c(C)c1[N+](=O)[O-],-10.1
17,C=CCN1C(=O)NC2(CCCCC2)C1=O,-14
18,O=C(NCc1ccco1)c1ccc2c(c1)S(=O)(=O)c1ccccc1C2=O,-49.6
